Measurements: the supplement of paper PMC11417369
This is one part of the list.

Test system: PF3D7_0420300 AP2 domain 1 (GST-tagged)
Experiment: gcPBM binding intensity (ln(normalized median fluorescence intensity)); higher = stronger DNA binding
In short: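 In this array assay, P. falciparum DNA-binding domains with a GST tag, expressed in E. coli, were applied for 1 h to primer-extended double-stranded 36-bp intergenic genomic probes and negative controls on an Agilent 4 × 180k array. Bound protein was visualised with Alexa488 anti-GST antibody at 488 nm. Binding intensity is the highest Masliner-normalised natural-log median intensity across replicate spots of either probe orientation.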

Row | Sequence | gcPBM binding intensity (ln)
1 | AAAGTAAAAGAAAGCACACACACATGTATATATGTA [CACACA_site3857] | 9.8
2 | AAAAAAAAAAAATATACACACACATATATATATATA [CACACA_site9123] | 9.65
3 | AACAACAATTTCGTCATACACACATTCAGAATATAT [CACACA_site2371] | 9.6
4 | TATATATATATATACACACACACCCTAAAAATATAT [CACACA_site1611] | 9.97
5 | AAAATTACTATATGAACACACATGATTAGATATATG [CACACA_site3083] | 9.48
6 | TGAAAGAATTAATTTTGTACATATAAAAATTTTATT [XGTACX_site8500] | 8.87
7 | TTTTTATTTTTAAAGGCACACACATTTTTATTTTTA [CACACA_site8624] | 9.54
8 | AATAAATAAATAATATAATGAAATTATAAAATGTGG [TGCATGCA_negctrl_site385] | 9.41
9 | TATTTGTGCCAAAAATGAAAAAGTTTGTATAAAACC [CACACA_negctrl_site1406] | 9.02
10 | AAATGAAATTTGTATACACACAAATATATTTATATA [CACACA_site6525] | 9.2
11 | AAGAAAAAAAATATATATGTATATATTATTTTAACA [TGCATGCA_negctrl_site534] | 9.07
12 | ATATTTTTTGCTATTACACACAAGGGATTATTATTT [CACACA_site7776] | 9.85
13 | TAATAATAGTCTAATACATGCATCGATAACGGAACT [TGCATGCA_site98] | 9.31
14 | ATGTTAATAACTTGTGGTACTGTTATAATTTAGTAA [XGTACX_site2114] | 9.3
15 | ATATAAGTGTATCTAACACACAAATATGTAAAAATG [CACACA_site7006] | 9.48
16 | ATATATCTACTGTGTTGTACTGTTAATATTTGAATA [XGTACX_site1931] | 9.46
17 | TATATACACATATATACACACACATATATATATATA [CACACA_site9127] | 9.79
18 | CAGGCGTGAAATATACGTACACACATTATTTATATT [XGTACX_site5337] | 9.56
19 | ATATAAATTATTTACACACAAACATTTATACTTTTA [CACACA_site3448] | 9.56

Row | Sequence | gcPBM binding intensity (ln)
20 | TTTTGTTACGGCAAGGAAGTTAAGCATAAATGAATG [GTGCAC_negctrl_site173] | 9.24
21 | AATATATGTATATATTTTTTTTTTTCCCTTACAAAT [GTGCAC_negctrl_site428] | 9.07
22 | GTTAAAATTGGGGACGCATGTTCCTTTCCTTTTTTT [TGCATGCA_site1002] | 9.08
23 | TTATAAATGTAACGATGTACTTTTAAAAGTTTCCTT [XGTACX_site109] | 8.97
24 | GGAATGGTACATGATACACACACGCACATATATATA [CACACA_site5825] | 9.86
25 | TATATTAAACAATATACACACATTAATGTATACATA [CACACA_site2755] | 9.46
26 | GACAAAAAATTAAAATAAAATAATAATATAATAAAA [GTGCAC_negctrl_site234] | 9.19
27 | ATATAATAGTTATATTGTACATAAATTATACACCTT [XGTACX_site628] | 9.22
28 | TATAAACACCCATATAAACACACATATAAACCAACA [CACACA_site8790] | 9.79
29 | ATACGCACACATATATGTACATATTGTATATATATA [XGTACX_site3962] | 9.52
30 | ACAATTTACACTTAAACACACAAAAAAAAATTATAT [CACACA_site2065] | 9.66
31 | TGTTTTATTTTATTAGTGCATTTTTATTTATAATAG [GTGCAC_site9453] | 9.38
32 | GCATCGATCAAACATACACACATGGTTAATAAAAAT [CACACA_site8651] | 9.57
33 | AAGGTAGAAATATGTTGTACGGTTTGGAGGAAGCAA [XGTACX_site1105] | 9.38
34 | ACATATATATTCATATGTACATATACATACATACAT [XGTACX_site4563] | 9.45
35 | TTTTCATAAAATCATTGTACATTTATCGTATATTAA [XGTACX_site3855] | 9.17
36 | AAAATATCTTATATATGTACATATTTATATTTATAT [XGTACX_site6027] | 9.22
37 | ATATTGTAAGTAAACACACACACATATATATGTATA [CACACA_site8124] | 9.82
38 | TTGTTTTTTTTTGGCTGTACGTTCATAAATTTTTTT [XGTACX_site4165] | 9.48

Row | Sequence | gcPBM binding intensity (ln)
39 | TTTTTTATAAAATTTTTTTTTTAAAATATTAAAACT [XGTACX_negctrl_site240] | 8.55
40 | AAGCTATATATAGGCAGTACTTTGTAAGTGTAGATA [XGTACX_site8365] | 9.16
41 | AAAAAAAAAAAAAAAACACACAGAACAATATATAAA [CACACA_site4698] | 9.76
42 | TATATGCATATACATACACACATAACACATACGTTT [CACACA_site3832] | 9.66
43 | ATATGTCACTTGTATACACACATATAGATTTCAATC [CACACA_site7519] | 9.52
44 | TTTCTAATTCTTAGTGGTACACAGTTCTGCTGATAT [XGTACX_site2391] | 8.88
45 | TATTTGTTGTGAGTCACACATATATATATATATATA [CACACA_site4240] | 9.32
46 | ATATATGTATATTTTTGTACGCATAAATATATTTTT [XGTACX_site827] | 9.19
47 | TTTTTATACAATTAGACACACACAAAAAGTATATAT [CACACA_site8272] | 9.64
48 | TGCTTAATTTACGTGGGTACATACACCTCATATATT [XGTACX_site3093] | 9.46
49 | TTAATACATATATATATATTATATATATATATATAT [TGCATGCA_negctrl_site177] | 8.93
50 | TATTTTTCCATAAAAATTTATATAGAAACAAATAAT [GTGCAC_negctrl_site103] | 8.97
51 | ATTATTTTAATTTTAATTTTTTTTTTTTTTTGTTTT [CACACA_negctrl_site1063] | 9.18
52 | CCCTTTTATTAAAATTCACACACATAAATTTTTATA [CACACA_site8611] | 9.42
53 | TACTATAAGATATATACACACAAGAAATACAAAACG [CACACA_site6764] | 10.1
54 | ATGATTATTTTAAAAAGTACTAATTATTATTTTTTT [XGTACX_site7242] | 9.07
55 | ATACACATTCGAAATAACAAAAAAATACATACACAT [GTGCAC_negctrl_site628] | 9.7
56 | GAATATGAATATTTGCGTACTTATATAACTGTTCTA [XGTACX_site883] | 9.36
